Values joined by “and” are separate entries in the source; they are usually repeats but may differ in a detail not shown here. Identical values can stand only once.
Details: Gallus gallus, reversible: Yes
[1] = pH 6, Thermal, DSC, Sodium citrate 11 mM
[2] = pH 7, 20 °C, GdnHCl, Fluorescence, HEPES/NaOH 50 mM

For “Lysozyme C wild type (chain not printed)”, the Tm [1] was 74.3 °C and 73.7 °C, the “unfolding enthalpy (calorimetric)” value [1] was 117 kcal/mol and 112 kcal/mol and the denaturant m value [2] was 2.58 kcal/mol/M and 2.34 kcal/mol/M and 3.11 kcal/mol/M. For the same substance, the “denaturant midpoint (higher = more stable)” value [2] was 4 M and 4.4 M and the unfolding free energy [2] was 10.6 kcal/mol and 10.3 kcal/mol and 12.9 kcal/mol.
